Counter-ions that a name gives are not always drawn. The list shows a part of the results. Repeats are few or missing, and single values can be far off.
Columns and labels:
OVCAR4 = test: log2 surviving fraction (library drug vs vehicle, or drug + carboplatin vs carboplatin alone; relative to plate median); ovarian cancer lines: OVCAR4 is platinum-sensitive and Ov4Carbo platinum-resistant; higher = more cell survival; settings: library drug concentration 10 µM, 7 days
Ov4Carbo = test: as above; settings: library drug concentration 10 µM, 7 days

Nc1c2c(nc3ccccc13)CCCC2 [Tacrine HCl]
log2 surviving fraction (OVCAR4; carboplatin co-treatment 0 µM): -0.748
log2 surviving fraction (OVCAR4; carboplatin co-treatment 5 µM): -6.83
log2 surviving fraction (Ov4Carbo; carboplatin co-treatment 0 µM): -0.172
log2 surviving fraction (Ov4Carbo; carboplatin co-treatment 5 µM): -0.0302

NC(=O)N1c2ccccc2CC(=O)c2ccccc21 [Oxcarbazepine]
log2 surviving fraction (OVCAR4; carboplatin co-treatment 0 µM): 1.19
log2 surviving fraction (OVCAR4; carboplatin co-treatment 5 µM): -1.63
log2 surviving fraction (Ov4Carbo; carboplatin co-treatment 0 µM): 0.971
log2 surviving fraction (Ov4Carbo; carboplatin co-treatment 5 µM): 0.288

N=C(N)N/N=C/c1c(Cl)cccc1Cl [Guanabenz acetate]
log2 surviving fraction (OVCAR4; carboplatin co-treatment 0 µM): -1.45
log2 surviving fraction (OVCAR4; carboplatin co-treatment 5 µM): -2.45
log2 surviving fraction (Ov4Carbo; carboplatin co-treatment 0 µM): -2.08
log2 surviving fraction (Ov4Carbo; carboplatin co-treatment 5 µM): -2.64

CCOC(=O)O[C@]1(C(=O)OCCl)CC[C@H]2[C@@H]3CCC4=CC(=O)C=C[C@]4(C)[C@H]3[C@@H](O)C[C@@]21C [Loteprednol etabonate]
log2 surviving fraction (OVCAR4; carboplatin co-treatment 0 µM): -10.1
log2 surviving fraction (OVCAR4; carboplatin co-treatment 5 µM): 0.132
log2 surviving fraction (Ov4Carbo; carboplatin co-treatment 0 µM): 1.1
log2 surviving fraction (Ov4Carbo; carboplatin co-treatment 5 µM): 0.478

Cc1c(C(=O)NN2CCCCC2)nn(-c2ccc(Cl)cc2Cl)c1-c1ccc(Cl)cc1
log2 surviving fraction (OVCAR4; carboplatin co-treatment 0 µM): -2.81
log2 surviving fraction (OVCAR4; carboplatin co-treatment 5 µM): -2.12
log2 surviving fraction (Ov4Carbo; carboplatin co-treatment 0 µM): -2.85
log2 surviving fraction (Ov4Carbo; carboplatin co-treatment 5 µM): -1.75

CCCOc1ccc(C(=O)OCCN(CC)CC)cc1N [Proparacaine HCl]
log2 surviving fraction (OVCAR4; carboplatin co-treatment 0 µM): 0.188
log2 surviving fraction (OVCAR4; carboplatin co-treatment 5 µM): 0.216
log2 surviving fraction (Ov4Carbo; carboplatin co-treatment 0 µM): 0.291
log2 surviving fraction (Ov4Carbo; carboplatin co-treatment 5 µM): 0.427

N=C(N)c1ccc(OCCCCCOc2ccc(C(=N)N)cc2)cc1 [Pentamidine]
log2 surviving fraction (OVCAR4; carboplatin co-treatment 0 µM): -5.44
log2 surviving fraction (OVCAR4; carboplatin co-treatment 5 µM): -4.83
log2 surviving fraction (Ov4Carbo; carboplatin co-treatment 0 µM): -5.82
log2 surviving fraction (Ov4Carbo; carboplatin co-treatment 5 µM): -5.08

C[C@@H]1O[C@@H]1P(=O)(O)O [Fosfomycin Tromethamine]
log2 surviving fraction (OVCAR4; carboplatin co-treatment 0 µM): -3.77
log2 surviving fraction (OVCAR4; carboplatin co-treatment 5 µM): -0.241
log2 surviving fraction (Ov4Carbo; carboplatin co-treatment 0 µM): -0.77
log2 surviving fraction (Ov4Carbo; carboplatin co-treatment 5 µM): -0.726

CC(C)(Sc1cc(C(C)(C)C)c(O)c(C(C)(C)C)c1)Sc1cc(C(C)(C)C)c(O)c(C(C)(C)C)c1 [Probucol]
log2 surviving fraction (OVCAR4; carboplatin co-treatment 0 µM): -0.327
log2 surviving fraction (OVCAR4; carboplatin co-treatment 5 µM): -0.577
log2 surviving fraction (Ov4Carbo; carboplatin co-treatment 0 µM): -0.283
log2 surviving fraction (Ov4Carbo; carboplatin co-treatment 5 µM): -0.268

CO/N=C(\C(=O)N[C@@H]1C(=O)N2C(C(=O)O)=C(Cn3ccc(=N)n3CCO)CS[C@H]12)c1csc(N)n1 [Cefoselis sulfate]
log2 surviving fraction (OVCAR4; carboplatin co-treatment 0 µM): 1.14
log2 surviving fraction (OVCAR4; carboplatin co-treatment 5 µM): 0.822
log2 surviving fraction (Ov4Carbo; carboplatin co-treatment 0 µM): -0.0539
log2 surviving fraction (Ov4Carbo; carboplatin co-treatment 5 µM): 0.0585
